Holding throughout (assay): Primary Screen for Target Class Profiling of Small Molecule Inhibitors of Methyltransferases
Experiment [1] deals with Glycine N-methyltransferase (Homo sapiens) (UniProt Q14749). To be noted: purified enzyme, MTase-Glo SAH luminescence; measured here: GNMT inhibition; at 40 µM; stronger effect = lower value. In outline: (§1)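 Each enzyme was assayed with SAM and its substrate. SAH formation detected by MTase-Glo luminescence; single-point 40 uM screen[…].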
In experiment [2] the target is Guanidinoacetate N-methyltransferase (Homo sapiens) (UniProt Q14353). To be noted: purified enzyme, MTase-Glo SAH luminescence; measured here: GAMT inhibition; at 40 µM; stronger effect = lower value. In outline:
as §1

For experiment [3], the target named is Histamine N-methyltransferase (Homo sapiens) (UniProt P50135). The settings on record: purified enzyme, MTase-Glo SAH luminescence; measured here: HNMT inhibition; at 40 µM; stronger effect = lower value. In outline: as §1
Experiment [4] has as its target Nicotinamide N-methyltransferase (Homo sapiens) (UniProt P40261). To be noted: purified enzyme, MTase-Glo SAH luminescence; measured here: NNMT inhibition; at 40 µM; stronger effect = lower value. In outline: as §1
In experiment [5] the target is Phenylethanolamine N-methyltransferase (Homo sapiens) (UniProt P11086). The settings on record: purified enzyme, MTase-Glo SAH luminescence; measured here: PNMT inhibition; at 40 µM; stronger effect = lower value. In outline:
as §1

This is one part of the list. These are further read-outs of the screen, such as a control signal, another cell line or another target. No call is given for them.
On the % scale 0 is the no-effect control and ±100 the full control effect.

With `CN(C)[C@@H]1CN(Cc2ccccn2)CC[C@@H]1CO`, the activity change, negative = inhibition was -1.06% in experiment [1]; -1.7% in experiment [2]; -1.02% in experiment [3]; -1.05% in experiment [4]; -22% in experiment [5].
The like results for `CC(=O)c1c(C)nn(CCC(=O)N2CCC3(CC2)[C@H](O)C[C@@H]3O)c1C` were, in that order, -4.99%, -0.352%, -0.05%, -1.16% and 3.61%.
The matching figures for `CCc1nc(-c2c3n(c(=O)n(CC(=O)NC4CCCC4)c2=O)CCCCC3)no1`: -0.524%, 4.66%, 1.63%, -2.5% and 13.5%.
`Cc1ccc(C(CC(=O)N2CCCCC2)c2cn(C)c3ccccc23)cc1` (stereo not drawn): the activity change, negative = inhibition was -2.91% in experiment [1]; -0.567% in experiment [2]; -2.08% in experiment [3]; -11.4% in experiment [4]; 0.211% in experiment [5].
The matching figures for `CCCN1C(=O)c2cc(C(=O)N3CCN(C)CC3)nn2CC1(C)C(=O)NC1CCCC1` (stereo not drawn): -1.9%, 2.36%, 4.57%, 1.44% and -1.6%.
Consider `COc1ccccc1CN1C(=O)c2ccc(-c3ccco3)n2CC1(C)C(=O)NC1CCCCCC1` (stereo not drawn), for which the activity change, negative = inhibition in experiment [1] is -3.3%; in experiment [2], 3.79%; in experiment [3], 1.41%; in experiment [4], -11.4%; in experiment [5], -2.03%.
The matching figures for `CCOc1ccccc1CN1C(=O)c2cc3sccc3n2CC1(C)C(=O)NC1CCCCCCC1` (stereo not drawn): -5.76%, 0%, -2.45%, -6.62% and -5.49%.
Take `C[C@@]1(O)[C@H](O)[C@@H](CO)O[C@H]1n1ccc(N)nc1=O`: the activity change, negative = inhibition in experiment [1] is -5.79%; in experiment [2] it was -6.35%; in experiment [3] it was 15.9%; in experiment [4], -13.9%; in experiment [5], 1.57%.
Turning to `Cc1ccc(-c2nc(-c3cc4cccc(OCc5cccc(C)c5)c4oc3=O)no2)cc1`, the activity change, negative = inhibition in experiment [2] is -16.5%; in experiment [4], -23.4%; in experiment [5], -15.1%.
With `CC(C)n1c(=O)c2ccc(C(=O)NC3CCCCC3)cc2n2c(=O)n(Cc3c(F)cccc3Cl)nc12`, the activity change, negative = inhibition in experiment [1] is 6.45%; in experiment [2], 0%; in experiment [3], 11.5%; in experiment [4], 4.31%; in experiment [5] it was 5.8%.
The like results for `COC(=O)C12C(=O)C(C)=C(O)C1(C)C(C)=CC1C3(CO)CCC(O)C(C)(C)C3CCC12C` (stereo not drawn) were, in that order, -3.36%, 0.476%, 10.1%, -13.7% and -6.87%.
The like results for `O=C1CCC2(CCCN(c3ncccc3F)C2)CN1Cc1ccncc1` (stereo not drawn) were, in that order, -4.85%, -6.51%, -2.54%, -1.64% and -9.12%.
The like results for `COc1ccc(C(=O)N2CCC(Cn3c(C)cnc3C3CCC3)CC2)c(OC)c1` were, in that order, -4.25%, -5.82%, -20.3%, -9.41% and -2.73%.
Turning to `CC1Oc2ccc(NC(=O)CC(C)(C)C)cc2CN(CCc2ccccc2)C1=O` (stereo not drawn), the activity change, negative = inhibition in experiment [1] is -5.68%; in experiment [2], -0.268%; in experiment [3] it was -29.1%; in experiment [4] it was 0.852%; in experiment [5], 0.678%.
The matching figures for `COC(=O)c1cc2n(n1)CC(C)(C(=O)NC1CCCCCC1)N(Cc1ccccc1)C2=O` (stereo not drawn): 4.08%, 0%, 7.98%, -0.458% and -0.143%.
The matching figures for `CC1OC(OC2C(O)C(C(=O)O)OC(OC3CCC4(C)C(CCC5(C)C4C=CC4=C6CC(C)(C)CC(O)C6(C)CCC45C)C3(C)C)C2OC2OCC(O)C(O)C2O)C(O)C(O)C1O` (stereo not drawn): 3.16%, 9.91%, 9.47%, -18% and 8.14%.

For the origin of these results see PubChem BioAssay AID1745853 (National Center for Advancing Translational Sciences (NCATS), 2022).
